Results as given in the BET-seq Pho4 binding data (Le et al. 2018).
This is one part of the list. These are noisy estimates, calculated here from bound and input reads.

molecular target: T1, Pho4 (S. cerevisiae) (UniProt P07270); test: relative binding free energy (BET-seq); higher = weaker binding; conditions: reference: library average
T1 sequence: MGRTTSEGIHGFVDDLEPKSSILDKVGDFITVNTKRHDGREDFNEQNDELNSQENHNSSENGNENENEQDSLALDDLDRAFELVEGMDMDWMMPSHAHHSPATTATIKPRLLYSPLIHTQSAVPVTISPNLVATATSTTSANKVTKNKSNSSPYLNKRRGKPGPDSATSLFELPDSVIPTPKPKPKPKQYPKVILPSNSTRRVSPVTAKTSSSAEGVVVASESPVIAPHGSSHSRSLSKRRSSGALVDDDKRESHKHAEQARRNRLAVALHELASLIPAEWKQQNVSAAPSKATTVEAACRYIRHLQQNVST

Sequence	relative binding free energy [kcal/mol]
CGGTGCACGTGCGGGA	-0.15
TTTTTCACGTGGGTCC	0.28
GGGCGCACGTGTAGCG	0.03
TCGAACACGTGTGTGT	-0.05
TAGGACACGTGATGGG	0.19
CTGGGCACGTGTGTCT	-0.11
TGATGCACGTGATGTT	0.18
TTATGCACGTGAAATA	0.17
TGAGTCACGTGGCTGA	0.03
AGGGCCACGTGGACGG	-0.11
AGAGTCACGTGATTAG	0.21
AATAACACGTGAGTGT	0.27
AAGTGCACGTGAGCTG	0.24
GAGTGCACGTGTTTCT	0.04
TAAGACACGTGGTGTT	-0.03
AGACGCACGTGGCTGT	-0.01
ATGGGCACGTGTGGCG	0.03
GCTGTCACGTGTTGCG	0.17
ATCTCCACGTGTGTTT	0.15
GGGGCCACGTGGTACA	0.03
TAGGTCACGTGGTCGA	-0.06
AGTTCCACGTGGGATT	-0.08
TAGGTCACGTGACGCT	0.18
GTGAACACGTGGATGG	0.05
GTGGGCACGTGGGTAG	-0.21

Sequence	relative binding free energy [kcal/mol]
GATTTCACGTGAGATT	0.54
TATCACACGTGTGGCT	0.33
AAGGGCACGTGGACTG	-0.15
GGGTTCACGTGACGTG	0.39
GAAGCCACGTGAGGGT	0.18
TCGGTCACGTGTAGCA	0.15
CTTGTCACGTGTTATC	0.1
GTAATCACGTGAAGTG	0.23
TGGGTCACGTGTGGGC	0.21
AATGACACGTGTAGAT	0.27
AGTAGCACGTGGCGCG	-0.11
TTAGTCACGTGTTGTA	0.13
CTAGGCACGTGATGTG	0.07
TGTCGCACGTGCGGTT	0
AAATTCACGTGGAGGG	0.18
TGGCGCACGTGGGCGT	-0.2
TGTGTCACGTGGTATC	-0.07
TTAAACACGTGTTTTC	0.03
CTTATCACGTGCGTTT	0.21
ATAGTCACGTGAGTTT	0.41
ATAAACACGTGGTGTT	-0.07
ATATTCACGTGGGATA	0.06
GATGGCACGTGAAATG	0.15
AGTAGCACGTGCGCGG	-0.22
ATATACACGTGTTGGC	0.09

Sequence	relative binding free energy [kcal/mol]
AAAGTCACGTGCTGGA	0.22
TAGTACACGTGGGTTG	-0.08
CATTTCACGTGGTGAT	0
GAGAACACGTGAGGGT	0.19
TTAGTCACGTGTGTAA	0.25
GGTGGCACGTGATATT	0.13
TGGTGCACGTGTCTGA	-0.1
GTGGGCACGTGGCTTT	-0.11
TGATGCACGTGTGCCG	-0.04
GGTCGCACGTGGGGCC	-0.03
ATGAGCACGTGAGAGG	0.19
GGGTTCACGTGTAGGA	0.35
GTTTCCACGTGTTTGA	0.08
GGGTACACGTGGAATA	0.3
TTGTACACGTGTGATG	0.06
TCTGGCACGTGATTTG	0
TGAGGCACGTGGGGGA	-0.22
CAAGTCACGTGAGTGT	0.21
GTTGTCACGTGTCTCG	0.25
GCAGTCACGTGGGTGA	-0.13
GTTTGCACGTGTTGCG	0.11
CATATCACGTGGGTAG	-0.06
TTTTCCACGTGTTTTA	0.12
ATGGTCACGTGCGCGT	-0.05
TGAAGCACGTGTTCGT	-0.18

Sequence	relative binding free energy [kcal/mol]
GAGGACACGTGGATGT	0.17
TCGGGCACGTGGTGGA	0.04
GATTTCACGTGGGTCA	0.23
TGCTTCACGTGTTTGG	0.3
TTGACCACGTGATTTG	0.11
AGGAGCACGTGGGGAA	-0.17
TGTATCACGTGGAAGC	0.28
GAATGCACGTGGGAGT	0.02
AATAGCACGTGTAATG	0.06
GGGATCACGTGGGGGT	0.02
AGGAGCACGTGTTGTC	-0.12
TAGCGCACGTGGTTGG	-0.2
ACTCGCACGTGATGTG	0.13
GCTGGCACGTGACGGG	-0.11
ATCTGCACGTGGGTGA	-0.05
GTCGTCACGTGTCGGG	0.22
GTTTCCACGTGGGTAG	0.09
AGTCGCACGTGAGTGC	0.27
GTTTTCACGTGGTTAT	0.35
GTATGCACGTGGCTTT	-0.06
GTTGACACGTGGAGTC	0.08
AGTAGCACGTGGAGCG	-0.09
ATGATCACGTGGGTAG	-0.02
TAAAGCACGTGAGAGG	0.04
TTAGTCACGTGTTATA	-0.07

Sequence	relative binding free energy [kcal/mol]
TGCAACACGTGGTGGT	-0.13
TTATTCACGTGACGGG	0.24
AGTGGCACGTGTCAGA	0.01
GAAATCACGTGCGGGG	0.17
ATCTGCACGTGCGTTG	-0.04
GTGGGCACGTGTCCTG	-0.06
ATATACACGTGTGGCG	0.05
AGTATCACGTGTGTTG	0.22
TGGAGCACGTGGCAGG	-0.18
GATTTCACGTGGGGTC	0.31
TTCTGCACGTGAGTAT	0.21
TTTCTCACGTGGTGAT	0.18
TATGCCACGTGCGGTT	-0.11
AATTCCACGTGGAGTG	0.21
GAGGACACGTGGTTTT	0.1
TTGTTCACGTGTGAGG	0.29
ATTTGCACGTGCGGTT	-0.02
TTCGTCACGTGGAAAT	0.23
TGGATCACGTGAGGTT	0.34
GGTTGCACGTGATGTA	0.06
TCTGGCACGTGGTGCG	-0.25
CATATCACGTGTAGTG	0.16
AAGGGCACGTGTATAG	-0.01
CTGGGCACGTGTAGTC	0.04
AGCGTCACGTGGGTAA	-0.14

Sequence	relative binding free energy [kcal/mol]
ATCGGCACGTGTTCGG	-0.04
TGAGTCACGTGTGTGG	0.17
TAGGTCACGTGTGGGA	0.15
GATTTCACGTGTGCGG	0.5
ATTGACACGTGTGAAG	0.05
TGGGGCACGTGCTCAT	-0.2
GTTCGCACGTGTTAGG	-0.01
GTAATCACGTGGTGCG	-0.01
CGGGTCACGTGTGGCA	0.28
TGGTGCACGTGGGGAA	-0.14
TTCGGCACGTGCTTGG	-0.05
TCTGTCACGTGTGAGA	0.16
GATTGCACGTGTATAG	0.11
CACTGCACGTGGTGGG	-0.16
ATTGACACGTGTGGGC	0
CGGTCCACGTGTTTTT	0.2
CTCGGCACGTGAATGT	0.17
CGTATCACGTGGATTG	0.14
CATGGCACGTGTGCGT	-0.14
GGTTGCACGTGAATAA	0.28
AGTAACACGTGTTTTT	-0.04
